According to the supplement of paper PMC3334620:
The full ranking holds about 33,000 sequences; the median of “E-score (-0.5 to 0.5)” is about -0.04, and the highest 2% start at about 0.36. Some of the results follow.

target: T1, Hmlalpha2 (UniProt P0CY09); experiment: PBM E-score (8-mer binding enrichment) (E-score (-0.5 to 0.5)); higher = stronger / more preferred TF binding; most listed sequences are background and not binding sites; settings: protein concentration: 200 nM; construct: GST-full length
T1 sequence: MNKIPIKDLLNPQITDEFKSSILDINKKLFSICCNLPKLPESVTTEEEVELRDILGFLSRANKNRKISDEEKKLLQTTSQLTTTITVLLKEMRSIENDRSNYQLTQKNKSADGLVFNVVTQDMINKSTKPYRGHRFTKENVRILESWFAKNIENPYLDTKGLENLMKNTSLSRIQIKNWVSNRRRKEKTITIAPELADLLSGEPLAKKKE
Summary of the method: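 Bound GST-tagged yeast transcription factors, applied at about 100-200 nM to double-stranded universal all-10-mer Agilent arrays, were detected with fluorescent anti-GST. Scans were normalised with masliner. A modified Wilcoxon-Mann-Whitney statistic, the E-score, was assigned to each ungapped eight-base word pooled with its reverse complement by the Universal PBM Analysis Suite.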

Sequence | PBM E-score
CGTTTTCA | 0.104
ACTTCTTG | 0.0173
GCTTCACA | 0.114
AATCTCAG | -0.157
AGTCGCAT | -0.057
ATTATGAA | 0.113
GCGAGCAC | -0.172
GCTCAAAC | 0.139
CTCATACC | -0.0108
GATTGGGA | -0.244
GATGTCGC | -0.0917
CGCTAGTA | -0.0238
CTGGTGGC | -0.194
CGACATAC | 0.114
AGTTGGAT | -0.00109
AGTTACAC | 0.426
GCAGGATA | -0.059
GACGGCAC | -0.252
ATATAGAG | -0.187
CAGAATCG | -0.162
ACCTCCTA | -0.17
AAGCGGGT | -0.171
ATTCCCTC | -0.173
GAACAGAA | -0.109
CCTTAAGA | -0.203

Sequence | PBM E-score
GTAAAGTA | 0.354
AACCAGAG | -0.0148
CAAGTGTC | 0.0177
GCACGACC | -0.188
CCAATGTA | 0.157
CGTTACTC | 0.0233
CCGGTTAA | -0.0848
CGCAGGTA | 0.118
AGCCGGAC | 0.0571
CGCCCCCC | -0.332
GGGGAGAA | -0.237
AATTGGCC | -0.176
ATTTATAC | 0.292
GCCTTCCA | -0.35
TATCATGA | 0.123
GACCCGAC | -0.283
CCAAACGG | -0.32
ACCTTATA | -0.0304
ACCTAGAA | 0.0631
CTTATAAC | 0.284
ATACAGCG | 0.00439
GCTCAGTA | 0.152
ACGAGTAA | 0.219
AAAGTTTG | 0.0346
CTACCCAC | -0.23

Sequence | PBM E-score
CTCGGCCA | -0.163
ACAATTCA | 0.119
TCCTGTAA | 0.274
ATGTATTC | 0.443
ACACCTGC | 0.0902
CTGCGAGA | -0.213
ACCTACTG | -0.13
CGTGCACC | -0.205
ACTGCTGG | -0.326
GATCACCC | -0.182
CGGAATTC | -0.0647
ACCGTGCC | -0.298
CTTATTAC | 0.27
CCCGGGCG | 0.0279
ACGTACTG | 0.0905
CACGTAGG | 0.0707
ACGTGCTC | 0.0521
CAGAAGCA | -0.107
ATACTAAC | 0.137
ACGGCTCA | -0.0622
ACGTATCG | 0.143
AGCGAGAA | -0.0609
CGCAGTGC | -0.0495
TCAACAGA | 0.149
CTTATCCA | -0.0319

Sequence | PBM E-score
CCATCCCG | -0.241
AAAAGATA | 0.0885
ACCATGGC | 0.0362
TATCTCAA | 0.172
AACCGATA | 0.116
AACTCCTG | -0.114
GATTTGCA | 0.0853
CGAGACCG | 0.00239
GGCAATAC | 0.131
GCCTTCGA | -0.209
AGTGGAAA | -0.0167
AAGCAGAC | -0.0944
CTTCATAC | 0.126
ATCAACAC | 0.399
ACATCTAG | 0.0527
TCTAGACA | 0.217
CTGAAAGA | -0.0885
CCGTGCGA | -0.0238
ATCGGGCC | -0.242
CTGTCGCC | -0.274
GCGAGTCC | -0.246
CGCCTGGA | -0.187
GAGCTCTA | -0.0505
CTTGAGCC | -0.427
AATCAACA | 0.37

Sequence | PBM E-score
ACGTAAGA | 0.29
TAATTCAA | 0.342
GACTCGAA | -0.317
GATGGCGC | -0.141
CGTGGATC | -0.208
ATAGGCAT | -0.0355
CTGTCAAA | 0.18
GTCACACA | 0.15
ACTACTAT | 0.175
TCGATAAA | 0.139
CACTTTGG | -0.203
AGACCTAC | -0.0018
CATCTAAG | -0.176
GCCTTCAC | -0.157
AGGGGTTA | -0.0258
CAAATTGG | 0.066
AAATGGGA | -0.251
AGACGGCC | -0.238
GCGAAAAA | 0.0302
TAATCGAA | 0.247
CCTAGCTC | -0.194
AACATGCA | 0.417
AGACCCTG | -0.153
GGTTTTAA | 0.15
CCACTGCA | -0.145

Sequence | PBM E-score
CAAGATGG | -0.0754
GGCTTGAA | -0.12
CCAACCCG | -0.242
GGTGTGAA | 0.207
CGTTGCAG | -0.143
CCTAATAG | -0.273
ACATTAGA | -0.00519
GTGCTTTA | 0.123
CACACATG | 0.169
AATTCGTA | 0.134
CCTTTGCC | -0.185
GAGAGCGA | -0.162
CCGGTTGC | -0.242
ACACCGTG | 0.237
AATGGCGA | -0.0465
TCGTGGAA | -0.00287
AAGAAGCC | -0.0183
CGAGATTA | 0.0971
ACATTACT | 0.303
GAGTAATA | 0.286
CCATTAAC | 0.255
AGACTCTC | -0.227
CTGTGCGC | -0.129
GGGCGGAC | -0.386
TACCTAAA | 0.0538

Sequence | PBM E-score
GTTGAAAC | 0.168
ATAACTGA | 0.0824
TGGCACAA | -0.0502
CTTCACAC | 0.251
AGGTTCAA | 0.155
ATAGTAGG | -0.125
AGTTGAAA | 0.0609
CGTTTTGA | 0.216
CCAGTGGA | -0.212
ATATGTGA | 0.234
CCCTCTCC | -0.226
CCGACAAG | -0.0211
CATCTGCG | 0.0508
AGATGCGA | -0.184
CTCCGGGA | -0.259
CCAAGAGA | -0.0759
GGTTCGGA | -0.199
CACGTTGA | 0.302
GTTTAGCA | 0.0847
ATTTAACC | 0.0603
ATGAGCGA | -0.138
AGCAAACG | -0.0759
